According to patent publication US11613544B2, “Substituted imidazo[1,5-a]pyrazines for modulation of IRE1” (THE REGENTS OF THE UNIVERSITY OF CALIFORNIA, priority 2012, dated 2023):
pIC50: −log10 of the molar value. Read-outs that look alike come from different tables or passages of the source. Each block holds one compound with its values, some of them ahead of it.

Assays:
IRE1α* [1] = target: T1, IRE1α* (Homo sapiens, UniProt O75460); conditions: for modulation of IRE1α* RNase activity (XBP1 RNA cleavage): in vitro
T1 sequence (O75460 with tags, fused parts or gaps): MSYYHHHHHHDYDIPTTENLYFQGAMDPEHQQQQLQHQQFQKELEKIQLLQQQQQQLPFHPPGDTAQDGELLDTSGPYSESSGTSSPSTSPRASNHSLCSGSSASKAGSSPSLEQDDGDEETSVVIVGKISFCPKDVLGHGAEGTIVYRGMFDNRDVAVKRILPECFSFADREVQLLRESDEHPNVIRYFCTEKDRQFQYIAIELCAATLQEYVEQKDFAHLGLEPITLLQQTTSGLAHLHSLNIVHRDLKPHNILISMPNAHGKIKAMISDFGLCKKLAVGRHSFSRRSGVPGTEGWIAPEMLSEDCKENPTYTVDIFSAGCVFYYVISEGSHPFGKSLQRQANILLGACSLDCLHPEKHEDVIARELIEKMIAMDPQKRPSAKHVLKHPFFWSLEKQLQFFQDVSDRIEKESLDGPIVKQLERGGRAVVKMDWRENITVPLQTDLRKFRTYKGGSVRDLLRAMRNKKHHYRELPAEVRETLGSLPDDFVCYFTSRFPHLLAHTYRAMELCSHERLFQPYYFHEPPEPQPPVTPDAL

IRE1α* [2] = target: T1, IRE1α*; assay: ICAT footprinting of native cysteine residues; type: binding; parameters: 6-His-tag (N); made in house; host or cells: SF9 insect cells (Bac-to-Bac baculovirus); conditions: 20 μM inhibitor
Method: As Cys645 and Cys715 are located within the ATP-binding cleft of IRE1α, the accessibility of these residues would be expected to be affected by ligands that occupy this site, while Cys572 is a solvent-exposed residue located on the top of the N-terminal lobe of the kinase.
Purified human Ire1α was exchanged into 50 mM Tris (pH 8.0), 50 mM KCl, 5 mM MgCl2, and 0.5 mM TCEP. […] Heavy labeling reagent was added to the protein solutions, and 25 μL aliquots were taken at specified times and quenched with excess DTT. Samples were precipitated with 0.2% sodium deoxycholate and 10% trichloroacetic acid on ice for 10 min. […] The pellets were then resuspended in 30 μL of 200 mM Tris (pH 8.0), 7 M urea, and 2.4 mM light labeling reagent, and incubated in the dark for 30 min. […] Samples (0.3 μmol) were injected onto a Thermo Scientific Dionex Acclaim Pepmap100 NanoLC capillary column (C18, 150 mm length, I.D. 75 μm, 3 μm particle size) connected inline to a Finnigan LCQ mass spectrometer. Peptides of interest were identified by MS/MS data (Sequest), and corresponding XIC peaks were integrated. Alkylation curves were fit using GraphPad Prism software (Binding—Kinetics, Dissociation—One-phase exponential decay).

IRE1α* [3] = target: T1, IRE1α*; assay: IRE1α* DSS cross-linking to determine oligomer to monomer ratio; conditions: saturating compound (200 μM), DSS 250 μM
IRE1α* [4] = target: T1, IRE1α*; assay: IRE1α* autophosphorylation kinase assay ([γ-32P]ATP, autoradiography); conditions: read-out: IC50 (autophosphorylation); IRE1α* kinase autophosphorylation in vitro
dP-IRE1α* = target: T2, dP-IRE1α* (Homo sapiens, UniProt O75460); assay: XBP1 RNA minisubstrate RNase assay with dephosphorylated IRE1α*; type: biochemical; conditions: increasing compound
T2 construct: 6-His-tag (N); made in house; host or cells: SF9 insect cells (Bac-to-Bac baculovirus), then λ-PPase (NEB) treatment
T2 sequence (O75460 with tags, fused parts or gaps): as above
Method: 5'FAM-3'BHQ-labeled XBP1 single stem-loop minisubstrate (5'[NT]3'BHQ) was purchased from Dharmacon. 0.2 μM IRE1α* or dP-IRE1α* were incubated with inhibitors or DMSO for 20 min in cleavage buffer, followed by incubation with 3 μM RNA substrate for 5 min. […] The cleavage products were also resolved by urea PAGE after phenol/chloroform extraction and ethanol precipitation.

WT IRE1α = assay: Autophosphorylation and XBP1 mRNA splicing in Dox-induced T-REx 293 cells expressing WT IRE1α; type: cell-based, human; conditions: 1 hr pre-treatment, Dox 1 μM 8 hrs
Method: Having used a truncated form of IRE1α for in vitro studies, cell-based experiments were used to test whether it would be possible to replicate divergent modulation of the full-length IRE1α transmembrane protein with the two classes of kinase inhibitors.
Cell culture and XBP1 mRNA splicing. INS-1 cells were grown in RPMI, 10% fetal calf serum, 1 mM sodium pyruvate, 10 mM HEPES, Pen/strep, 2 mM glutamine and 50 mM 0-mercaptoethanol. […] The RNA was then extracted using RNeasy Mini Kit (Qiagen), and reverse transcribed using the QuantiTect Reverse Transcription Kit (Qiagen). XBP1 splicing was performed as previously described^7.
Immunoblot analysis. INS-1 cells were incubated with compounds or DMSO for 1 hr, followed by 1 μM Tg for 2 hrs. […] Cells were lysed in RIPA buffer (20 mM Tris-HCl, pH 7.5, 0.1% SDS, 1% Triton X-100, 1% sodium deoxycholate, 150 mM NaCl, 1 mM EDTA, 1% NP-40, complete EDTA-free protease inhibitor (Roche) and phosphatase inhibitor cocktail (Sigma)), and cleared lysates were subjected to SDS-PAGE and transferred to nitrocellulose. Blocking, antibody incubation, and washing were done in PBS or TBS with 0.05% Tween-20 (v/v) and 5% (w/v) non-fat dry milk or BSA, or blocking buffer (Odyssey). […] The antibody binding was detected by using near-infrared-dye-conjugated secondary antibodies and visualized on the LI-COR Odyssey scanner.

Src = Src (Homo sapiens, UniProt P12931); assay: Kinase panel counter-screen; type: biochemical; conditions: tested against 12 kinases of the panel
Chain of Src (P12931 whole entry, species assumed): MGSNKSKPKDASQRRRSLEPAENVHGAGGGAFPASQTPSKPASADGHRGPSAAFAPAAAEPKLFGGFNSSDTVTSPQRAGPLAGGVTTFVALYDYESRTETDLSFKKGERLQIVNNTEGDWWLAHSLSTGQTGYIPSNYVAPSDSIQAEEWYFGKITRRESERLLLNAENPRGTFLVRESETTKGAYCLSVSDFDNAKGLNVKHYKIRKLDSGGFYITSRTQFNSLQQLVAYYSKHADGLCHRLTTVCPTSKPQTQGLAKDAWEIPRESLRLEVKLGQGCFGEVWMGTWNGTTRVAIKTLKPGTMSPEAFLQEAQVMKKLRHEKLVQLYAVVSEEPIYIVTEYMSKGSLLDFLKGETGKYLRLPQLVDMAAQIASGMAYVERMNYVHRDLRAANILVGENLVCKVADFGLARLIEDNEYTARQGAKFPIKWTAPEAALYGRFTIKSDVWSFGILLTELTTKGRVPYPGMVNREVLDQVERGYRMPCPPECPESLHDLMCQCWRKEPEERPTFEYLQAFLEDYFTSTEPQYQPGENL

Abl = Abl (Homo sapiens, UniProt P00519); assay: Kinase panel counter-screen; type: biochemical; conditions: tested against 12 kinases of the panel
Chain of Abl (P00519 whole entry, species assumed): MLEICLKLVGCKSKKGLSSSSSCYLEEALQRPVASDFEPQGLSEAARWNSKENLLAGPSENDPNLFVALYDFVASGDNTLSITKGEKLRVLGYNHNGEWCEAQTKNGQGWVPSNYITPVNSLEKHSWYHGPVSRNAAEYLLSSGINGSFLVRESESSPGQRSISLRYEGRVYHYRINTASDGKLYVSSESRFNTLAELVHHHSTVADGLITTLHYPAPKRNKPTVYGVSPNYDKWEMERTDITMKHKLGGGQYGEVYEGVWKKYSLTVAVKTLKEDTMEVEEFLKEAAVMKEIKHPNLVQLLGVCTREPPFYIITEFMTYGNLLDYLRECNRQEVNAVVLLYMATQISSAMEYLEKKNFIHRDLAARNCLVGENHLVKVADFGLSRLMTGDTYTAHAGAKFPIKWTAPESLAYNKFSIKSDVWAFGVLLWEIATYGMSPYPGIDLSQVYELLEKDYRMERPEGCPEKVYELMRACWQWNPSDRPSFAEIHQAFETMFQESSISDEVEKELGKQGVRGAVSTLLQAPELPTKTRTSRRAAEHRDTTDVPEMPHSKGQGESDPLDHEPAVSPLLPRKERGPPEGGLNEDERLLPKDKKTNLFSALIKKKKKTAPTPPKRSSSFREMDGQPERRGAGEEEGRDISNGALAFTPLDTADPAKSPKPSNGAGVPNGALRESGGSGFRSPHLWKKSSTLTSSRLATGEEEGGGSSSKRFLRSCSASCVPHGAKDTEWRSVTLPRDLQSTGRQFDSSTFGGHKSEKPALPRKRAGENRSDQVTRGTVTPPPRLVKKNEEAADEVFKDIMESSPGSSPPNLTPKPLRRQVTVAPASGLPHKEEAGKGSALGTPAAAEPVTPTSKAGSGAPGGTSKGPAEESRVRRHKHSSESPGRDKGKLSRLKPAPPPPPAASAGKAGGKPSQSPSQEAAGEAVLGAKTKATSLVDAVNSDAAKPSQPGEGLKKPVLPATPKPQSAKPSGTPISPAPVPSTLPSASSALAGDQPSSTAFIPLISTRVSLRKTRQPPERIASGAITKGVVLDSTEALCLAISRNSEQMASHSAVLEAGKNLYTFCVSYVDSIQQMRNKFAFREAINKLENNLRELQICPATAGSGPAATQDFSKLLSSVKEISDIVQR

[5] = INS-1, thapsigargin-induced ER stress

modulation of IRE1α* RNase activity (XBP1 RNA cleavage) (IRE1α* [1]): significant increase in overall potency
SMILES: CC(C)c1nc(-c2ccc(NC(=O)Nc3cccc(C(F)(F)F)c3)cc2)c2c(N)nccn12 [KIRA2, 1-(4-(8-amino-3-isopropylimidazo[1,5-a]pyrazin-1-yl)phenyl)-3-(3-(trifluoromethyl)phenyl)urea]

XBP1 mRNA splicing (RNase of endogenous IRE1α) (endogenous IRE1α; [5]): does not block the splicing of XBP1 mRNA
SMILES: CNc1nccn2c(C(C)C)nc(-c3ccc(NC(=O)Nc4cccc(C(F)(F)F)c4)c4ccccc34)c12 [GP146(NMe), 1-(4-(3-isopropyl-8-(methylamino)imidazo[1,5-a]pyrazin-1-yl)naphthalen-1-yl)-3-(3-(trifluoromethyl)phenyl)urea]
autophosphorylation and XBP1 mRNA splicing (WT IRE1α): does not affect either of these parameters
modulation of IRE1α* RNase activity (XBP1 RNA cleavage) (IRE1α* [1]): markedly diminished ability to inhibit the RNase activity

off-target kinase inhibition (Src): off-target inhibition observed
off-target kinase inhibition (Abl): off-target inhibition observed
XBP1 mRNA splicing (RNase of endogenous IRE1α) (endogenous IRE1α; [5]): opposing dose-dependent effects
SMILES: CC(C)c1nc(-c2ccc(NC(=O)Nc3cccc(C(F)(F)F)c3)c3ccccc23)c2c(N)nccn12 [KIRA3, 1-(4-(8-amino-3-isopropylimidazo[1,5-a]pyrazin-1-yl)naphthalen-1-yl)-3-(3-(trifluoromethyl)phenyl)urea]
autophosphorylation and XBP1 mRNA splicing (WT IRE1α): inhibits autophosphorylation and XBP1 mRNA splicing

Second part, the compound before the results:

SMILES: CC(C)c1nc(-c2ccc(NC(=O)c3cccc(C(F)(F)F)c3)c3ccccc23)c2c(N)nccn12 [GP146(Am), N-(4-(8-amino-3-isopropylimidazo[1,5-a]pyrazin-1-yl)naphthalen-1-yl)-3-(trifluoromethyl)benzamide]
modulation of IRE1α* RNase activity (XBP1 RNA cleavage) (IRE1α* [1]): markedly diminished ability to inhibit the RNase activity

SMILES: O=S(=O)(N=Cc1c(O)ccc2ccccc12)c1cccs1 [STF-083010, reference compound]
IRE1α autophosphorylation (kinase activity) (endogenous IRE1α; [5]): does not prevent IRE1α auto-phosphorylation
XBP1 mRNA splicing (RNase of endogenous IRE1α) (endogenous IRE1α; [5]): inhibits XBP1 splicing in a dose-dependent manner
endogenous IRE1α auto-phosphorylation (endogenous IRE1α; in vivo (cells), FIG. 30D): does not inhibit IRE1α auto-phosphorylation

SMILES: c1cc(Nc2cc(C3CC3)[nH]n2)nc(Nc2ccc3nc[nH]c3c2)n1 [APY29, reference compound]
accessibility (alkylation rate) of Cys715 (IRE1α* [2]): slowing the rate of alkylation
accessibility of Cys572 (IRE1α* [2]): no detectable difference
accessibility of Cys645 to alkylating agents (IRE1α* [2]): highly shielded from alkylating agents
IRE1α* oligomer/monomer ratio (oligomerization state) (IRE1α* [3]): further enhances
pIC50 (IRE1α* [4]): 6.55
restored RNase activity of dP-IRE1α*, plateau (dP-IRE1α*): ~60 % of the levels of IRE1α*
modulation of IRE1α* RNase activity (XBP1 RNA cleavage) (IRE1α* [1]): acting as an activator
RNase competition: effect on IRE1α* RNase inhibition (IRE1α* [1]; increasing concentrations under a fixed concentration of KIRA3 (GP146)): progressively reverse IRE1α* RNase inhibition
RNase competition: effect on IRE1α* RNase inhibition (IRE1α* [1]; under fixed STF-083010): cannot rescue direct inhibition
XBP1 mRNA splicing (RNase of endogenous IRE1α) (endogenous IRE1α; [5]): opposing dose-dependent effects
